# The supplement of paper PMC8821664
# Where a name gives a salt, the structure may show the parent alone. This is one part of the list. Repeats are few or missing, and single values can be far off.
# Test system: Beas-2B AQP5-HiBiT reporter cells
# Experiment: AQP5-HiBiT luminescence relative to vehicle (ratio to vehicle); higher = higher AQP5-HiBiT protein abundance
# Conditions: 10 µM; 18 h
# 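Note: monoclonal Beas-2B line stably carrying CMV promoter-driven AQP5-HiBiT, 5,000 cells per well in 384-well plates, lytic HiBiT plus LgBiT NanoLuc luminescence, FDA-approved drug library screen.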
row,SMILES,AQP5-HiBiT luminescence
1,O=C(N[C@H](CO)[C@H](O)c1ccc([N+](=O)[O-])cc1)C(Cl)Cl [Chloramphenicol],1.18
2,COc1cccc2c1C(=O)c1c(O)c3c(c(O)c1C2=O)C[C@@](O)(C(=O)CO)C[C@@H]3O[C@H]1C[C@H](N)[C@H](O)[C@H](C)O1 [Doxorubicin (Adriamycin)],1.26
3,CC(O)(P(=O)(O)O)P(=O)(O)O [Sodium etidronate],0.978
4,CCN(CC)CC(=O)Nc1c(C)cccc1C [Xylocaine],0.829
5,O=C1Nc2ccc(Cl)cc2[C@@](C#CC2CC2)(C(F)(F)F)O1 [Efavirenz],0.599
6,CCN(CC)CCNC(=O)c1cc(Cl)c(N)cc1OC [Metoclopramide hydrochloride],0.934
7,CCc1c2c(nc3ccc(OC(=O)N4CCC(N5CCCCC5)CC4)cc13)-c1cc3c(c(=O)n1C2)COC(=O)[C@]3(O)CC [Irinotecan],0.429
8,CN1CCN(C2=Nc3ccccc3Oc3ccc(Cl)cc32)CC1 [Loxapine succinate salt],1.5
9,C[C@H]1c2cccc(O)c2C(=O)C2=C(O)[C@]3(O)C(=O)C(C(N)=O)=C(O)[C@@H](N(C)C)[C@@H]3[C@@H](O)[C@@H]21 [Doxycycline hyclate],0.837
10,COc1c(N2C[C@@H]3CCCN[C@@H]3C2)c(F)cc2c(=O)c(C(=O)O)cn(C3CC3)c12 [Moxifloxacin hydrochloride],0.747
11,O=C(O)C1(C(=O)O)CCC1.[NH2-].[NH2-].[Pt+2] [Carboplatin],1.11
12,Clc1ccc2c(c1)CCc1cccnc1C2=C1CCNCC1 [Desloratadine],1.6
13,Cc1nnc(C(=O)NC(C)(C)c2nc(C(=O)NCc3ccc(F)cc3)c(O)c(=O)n2C)o1 [Raltegravir potassium],0.692
14,Cc1ccnc(NS(=O)(=O)c2ccc(N)cc2)n1 [Sulfamerazine],1.09
15,CO[C@H]1C[C@@H]2CC[C@@H](C)[C@@](O)(O2)C(=O)C(=O)N2CCCC[C@H]2C(=O)O[C@H]([C@H](C)C[C@@H]2CC[C@@H](OC(=O)C(C)(CO)CO)[C@H](OC)C2)CC(=O)[C@H](C)/C=C(\C)[C@@H](O)[C@@H](OC)C(=O)[C@H](C)C[C@H](C)/C=C/C=C/C=C/1C,0.439
16,CN(C)CCc1c[nH]c2ccc(C[C@H]3COC(=O)N3)cc12 [Zolmitriptan],0.782
17,CC1(C)O[C@@H]2C[C@H]3[C@@H]4C[C@H](F)C5=CC(=O)C=C[C@]5(C)[C@@]4(F)[C@@H](O)C[C@]3(C)[C@]2(C(=O)CO)O1 [Fluocinolone acetonide],0.785
18,O=C1OC2(c3ccc(O)cc3Oc3cc(O)ccc32)c2ccccc21 [Fluorescein],1.11
19,C[C@]12CC[C@@H]3c4ccc(O)cc4CC[C@H]3[C@@H]1CCC2=O [Aquacrine],0.586
20,O=S(=O)(O)Oc1ccc(C(c2ccc(OS(=O)(=O)O)cc2)c2ccccn2)cc1 [Sodium picosulfate monohydrate],0.823

row,SMILES,AQP5-HiBiT luminescence
1,CC[C@@H](CO)NCCN[C@@H](CC)CO [Ethambutol 2hydrochloride],0.828
2,CC(C)NCC(O)c1ccc(O)c(O)c1 (stereo not given) [Isoprenaline hydrochloride],1.03
3,CN1CCC(=C2c3ccccc3CC(=O)c3sccc32)CC1 [Ketotifen fumarate],0.85
4,Cc1ncc([N+](=O)[O-])n1CCO [Metronidazole],0.905
5,O=C(O)CCCCCCCC(=O)O [Azelaic acid],0.789
6,NC[C@H](O)c1ccc(O)c(O)c1 [Noradrenaline bitartrate monohydrate],0.642
7,COc1ccc2cc([C@H](C)C(=O)O)ccc2c1 [Naproxen],0.7
8,CC(=O)Nc1nnc(S(N)(=O)=O)s1 [Acetazolamide],0.684
9,Nc1ccc(S(=O)(=O)Nc2nccs2)cc1 [Sulfathiazole],0.737
10,O=C1CCC(N2C(=O)c3ccccc3C2=O)C(=O)N1 (stereo not given) [Thalidomide],0.756
11,CC[N+](CC)(CC)CCOc1cccc(OCC[N+](CC)(CC)CC)c1OCC[N+](CC)(CC)CC [Gallamine triethiodide],1.43
12,CCOC(=O)C1=C(COCCN)NC(C)=C(C(=O)OC)C1c1ccccc1Cl (stereo not given) [Amlodipine Besylate],1.35
13,Cc1cn(-c2cc(NC(=O)c3ccc(C)c(Nc4nccc(-c5cccnc5)n4)c3)cc(C(F)(F)F)c2)cn1 [Nilotinib (AMN-107)],2.81
14,CCn1cc(C(=O)O)c(=O)c2cc(F)c(N3CCNC(C)C3)c(F)c21 (stereo not given) [Lomefloxacin hydrochloride],0.992
15,OCCOCCN1CCN(C(c2ccccc2)c2ccc(Cl)cc2)CC1 (stereo not given) [Hydroxyzine Pamoate],1.47
16,CCOC(=O)[C@H](CCc1ccccc1)N[C@@H](C)C(=O)N1CCC[C@H]1C(=O)O [Enalapril],0.881
17,CC(C)C[C@H](NC(=O)CNC(=O)c1cc(Cl)ccc1Cl)B(O)O [MLN2238(Ixazomib)],37.3
18,CN1CCN(CCCN2c3ccccc3Sc3ccc(C(F)(F)F)cc32)CC1 [Trifluoperazine 2hydrochloride],1.96
19,Cc1ccsc1C(=CCCN1CCC[C@@H](C(=O)O)C1)c1sccc1C [Tiagabine],0.717
20,Cc1ccnc2c1NC(=O)c1cccnc1N2C1CC1 [Nevirapine],0.626
